Assay results: patent US20100221257A1 (AstraZeneca / MedImmune, published 2010)

How the values were obtained:
[1] = target: T1, human IL-1R1, endogenous on human cells (HeLa cells; whole blood) (human, UniProt P14778 18-569); assay: cell-based or functional assay
T1 sequence (looked up): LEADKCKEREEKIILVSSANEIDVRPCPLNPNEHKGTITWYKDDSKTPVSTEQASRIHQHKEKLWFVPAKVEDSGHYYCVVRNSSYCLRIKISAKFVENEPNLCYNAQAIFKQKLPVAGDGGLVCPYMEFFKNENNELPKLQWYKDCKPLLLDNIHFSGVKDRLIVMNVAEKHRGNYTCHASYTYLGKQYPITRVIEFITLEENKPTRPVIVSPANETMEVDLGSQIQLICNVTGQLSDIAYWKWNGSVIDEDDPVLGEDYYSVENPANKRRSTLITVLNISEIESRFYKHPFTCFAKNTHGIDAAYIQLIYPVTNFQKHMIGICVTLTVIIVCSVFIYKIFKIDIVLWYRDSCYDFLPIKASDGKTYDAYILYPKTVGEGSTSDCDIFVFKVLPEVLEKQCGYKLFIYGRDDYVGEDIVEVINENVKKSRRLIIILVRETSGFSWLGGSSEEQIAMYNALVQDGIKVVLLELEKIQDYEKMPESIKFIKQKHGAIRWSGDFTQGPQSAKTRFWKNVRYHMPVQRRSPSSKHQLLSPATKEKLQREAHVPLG

[2] = target: T2, cynomolgus IL-1R1, endogenous on CYNOM-K1 cells (cynomolgus monkey, UniProt A0A7N9CMI5 18-569); assay: cell-based or functional assay
T2 sequence: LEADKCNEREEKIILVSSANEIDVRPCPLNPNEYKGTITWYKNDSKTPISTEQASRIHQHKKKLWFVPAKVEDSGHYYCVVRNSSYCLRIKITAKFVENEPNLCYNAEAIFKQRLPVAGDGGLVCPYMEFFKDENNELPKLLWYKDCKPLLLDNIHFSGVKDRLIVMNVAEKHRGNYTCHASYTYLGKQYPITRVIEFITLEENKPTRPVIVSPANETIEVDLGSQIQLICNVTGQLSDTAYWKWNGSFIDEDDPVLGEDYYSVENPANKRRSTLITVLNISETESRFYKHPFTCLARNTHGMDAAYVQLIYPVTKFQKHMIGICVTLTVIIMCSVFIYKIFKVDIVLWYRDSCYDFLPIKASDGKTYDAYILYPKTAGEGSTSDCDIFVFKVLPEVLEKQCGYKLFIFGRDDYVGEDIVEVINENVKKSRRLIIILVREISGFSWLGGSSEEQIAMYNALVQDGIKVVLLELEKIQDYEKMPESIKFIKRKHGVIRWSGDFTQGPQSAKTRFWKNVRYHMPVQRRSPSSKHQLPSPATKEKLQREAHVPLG

[3] = target: T1, human IL-1R1, endogenous on human cells …; assay: cell-based or functional assay; remark: listed apart in the source
[4] = target: T3, human histidine tagged (HIS) IL1RFc fusion protein (human); assay: HTRF receptor-ligand assay, inhibiting HIS FLAG IL-1Ra binding to cryptate labelled human HIS IL1RFc
T3 construct: Biotinylated or cryptate labelled in some assays; also called human HIS IL1RFc; huIL-1R1-Fc

[5] = target: T3, human histidine tagged (HIS) IL1RFc …; assay: HTRF receptor-ligand assay, inhibiting HIS FLAG IL-1β binding to human HIS IL1RFc

- IC50, inhibition of human IL-1β induced IL-8 release from HeLa cells [1]: 0.01 nM
- IC50, inhibition of IL-1β induced IL-8 release from CYNOM-K1 cells, experiment 1 [2]: 0.2 nM
- IC50, inhibition of IL-1β induced IL-8 release from CYNOM-K1 cells, experiment 2 [2]: 0.8 nM
- IC50, inhibition of IL-1 alpha induced IL-8 release in HeLa cells (N = 3) [3]: 0.0017 nM
- IC50, inhibition of IL-1 beta induced IL-8 release in HeLa cells (run with the GL IgG2 set, N = 5-6) [3]: 0.002 nM
- IC50, inhibition of IL-1 beta induced IL-8 release in HeLa cells (run with the IgG1 set, N = 6-7) [3]: 0.0062 nM
- IC50 [4]: 0.323 nM
- IC50 [5]: 0.323 nM
B1: Kineret (anakinra), recombinant nonglycosylated human IL-1Ra (ligand)
chain: not shown
notes: mature; Bought from a pharmacy outlet; also called IL-1 receptor antagonist
